Assay results as given in PMC8422164, “A comparison of three mucus-secreting airway cell lines (Calu-3, SPOC1 and UNCN3T) for use as biopharmaceutical models of the nose and lung” (European Journal of Pharmaceutics and Biopharmaceutics, 2021).
Counter-ions that a name gives are not always drawn.

Columns and labels:
SPOC1 cells [1] = assay: Mucin secretion (ELLA) in response to inhaled drugs, SPOC1 on Geltrex-coated plastic; format: cell-based, rat
Method: Wells were then washed three times with phosphate buffered saline (PBS) containing 0.05 % v/v Tween, 0.5 % w/v bovine gelatin type B (Sigma Aldrich), and blocked by incubation with PBS containing 1.0 % w/v gelatin at 37 °C for 1 h. […] Wells with samples from UNC[…] cells were incubated with biotinylated-Helix pomatia agglutinin prepared in the blocking solution. These wells were then washed before incubation with HRP-labelled streptavidin. Finally, plates containing samples from all cell lines were washed repeatedly and developed by the addition of substrate solution which consisted of o-phenylene diamine (Sigma […] tablet) prepared according to manufacturer's instructions, for 3 min at room temperature, after which the reaction was terminated by the addition of 20% (v/v) H2SO4. The absorbance at 492 nm was measured using an Ascent MultiskanTM plate reader (Thermo Fisher Scientific). The absorbance of the samples was compared with known mucin standards, purified by two rounds of density gradient ultracentrifugation, as described by […] et al., from the sputum of a volunteer with chronic obstructive pulmonary disease. Ethical approval was obtained from the University of Brighton School of Pharmacy and Biomolecular Sciences Ethics Committee, under reference PABSREC 0509, and informed consent was obtained from the volunteer.

SPOC1 cells [2] = assay: TEER of SPOC1 cells with AMP-PNP
SPOC1 cells [3] = assay: Enhancement of mucin secretion using AMP-PNP (Secretagogue model), ELLA, SPOC1; format: cell-based, rat; details: for Fold increase in mucin levels: vs baseline
Method: Cells cultured on inserts were arbitrarily divided into two groups termed 'low mucus' and 'high mucus'. […] Plates were kept on a shock-absorbing foam pad to prevent inadvertent mechanical stimulation of mucin secretion. […] Washes were stored at 4 °C until mucin secretion could be determined using an ELLA (on the day of treatment). At 10, 20 and 30 min, three further washes were performed and the average mucin content used to establish baseline mucin secretion. […] Each AMP-PNP/TB apical solution was changed (“like for like”) at 10-minute intervals. […] Wells were then washed three times with phosphate buffered saline (PBS) containing 0.05 % v/v Tween, 0.5 % w/v bovine gelatin type B (Sigma Aldrich), and blocked by incubation with PBS containing 1.0 % w/v gelatin at 37 °C for 1 h. […] Wells with samples from UNC[…] cells were incubated with biotinylated-Helix pomatia agglutinin prepared in the blocking solution. These wells were then washed before incubation with HRP-labelled streptavidin. Finally, plates containing samples from all cell lines were washed repeatedly and developed by the addition of substrate solution which consisted of o-phenylene diamine (Sigma […] tablet) prepared according to manufacturer's instructions, for 3 min at room temperature, after which the reaction was terminated by the addition of 20% (v/v) H2SO4. The absorbance at 492 nm was measured using an Ascent MultiskanTM plate reader (Thermo Fisher Scientific). The absorbance of the samples was compared with known mucin standards, purified by two rounds of density gradient ultracentrifugation, as described by […] et al., from the sputum of a volunteer with chronic obstructive pulmonary disease. Ethical approval was obtained from the University of Brighton School of Pharmacy and Biomolecular Sciences Ethics Committee, under reference PABSREC 0509, and informed consent was obtained from the volunteer.

SPOC1 cells [4] = assay: Cytokine release (ELISA) in response to inhaled drugs, SPOC1; details: for Effect on IFN-γ release / Effect on TNF-α release / Effect on IL-6 release: SPOC1, drug 5-50 μM, 30 min; for Effect on IL-6 release: salbutamol significant at 50 μM
[5] = SPOC1, drug at 50 μM, compared to controls

Structure (SMILES)	Effect on IFN-γ release (SPOC1 cells [4])	Effect on TNF-α release (SPOC1 cells [4])	Effect on IL-6 release (SPOC1 cells [4])	Effect on mucin secretion (SPOC1 cells [1]; [5])	further results
Nc1ncnc2c1ncn2[C@@H]1O[C@H](COP(=O)([O-])OP(=O)([O-])NP(=O)([O-])[O-])[C@@H](O)[C@H]1O.[Li+].[Li+].[Li+].[Li+] [AMP-PNP, adenylyl-imidodiphosphate, tetralithium salt]					Mucin secretion (SPOC1 cells [1]; SPOC1 on Geltrex-coated plastic, AMP-PNP 100 μM, 30 min, control 0.94 ± 0.04): 3.82 ± 0.21 ng/well; Effect upon TEER (SPOC1 cells [2]): no discernible effect; Fold increase in mucin levels (SPOC1 cells [3]; SPOC1 on Geltrex-coated Transwell-Clear inserts, AMP-PNP 100 μM): 3.5 fold; Mucin level after AMP-PNP (SPOC1 cells [3]; SPOC1 on Geltrex-coated Transwell-Clear inserts, AMP-PNP 100 μM, baseline 1.43 ± 0.33): 5.01 ± 0.40 ng/well; Fold increase in mucin levels (SPOC1 cells [3]; SPOC1 on Transwell-COL inserts, data not shown): 3.0 fold; Mucin level after AMP-PNP (SPOC1 cells [3]; SPOC1 on Transwell-COL inserts, baseline 1.03 ± 0.16): 3.09 ± 0.48 ng/well
O=S(=O)([O-])[O-].[O]=[V+2] [VOSO4, Vanadium (IV) oxide sulfate]					IFN-γ release, fold increase by positive control (SPOC1 cells [4]; SPOC1): 7 fold; TNF-α release, fold between VOSO4 and medium alone (SPOC1 cells [4]; SPOC1): 1.5 fold; TNF-α release (SPOC1 cells [4]; SPOC1, VOSO4 20 μg mL^−1, 30 min, medium alone 29.8 ± 0.5): 45.2 ± 1.6 pg/mL; IFN-γ release (SPOC1 cells [4]; SPOC1, VOSO4 20 μg mL^−1, 30 min, medium alone 43.4 ± 3.8): 308.3 ± 15.9 pg/mL; IL-6 release (SPOC1 cells [4]; SPOC1, VOSO4 20 μg mL^−1, 30 min, untreated 51.0 ± 3.7): 97.7 ± 7.4 pg/mL; IL-6 release, fold that of culture medium alone (SPOC1 cells [4]; SPOC1, positive control): 1.9 fold
CCCC1O[C@@H]2C[C@H]3[C@@H]4CCC5=CC(=O)C=C[C@]5(C)[C@H]4[C@@H](O)C[C@]3(C)[C@]2(C(=O)CO)O1 (stereo partly shown) [budesonide]	No significant increase	No significant increase	No significant increase		Effect on mucin secretion (SPOC1 cells [1]; SPOC1, drug 5-50 μM): no effect
CC(C)[N+]1(C)[C@@H]2CC[C@H]1C[C@@H](OC(=O)C(CO)c1ccccc1)C2 (stereo partly shown) [ipratropium, Ipratropium bromide monohydrate]	No significant increase	No significant increase	No significant increase	significantly increased	
CC(C)(C)NCC(O)c1ccc(O)c(CO)c1 (stereo not shown) [salbutamol, salbutamol sulfate]	No significant increase	No significant increase	dose-dependent increase	significantly increased	
C[N+]1(C)[C@@H]2C[C@@H](OC(=O)C(O)(c3cccs3)c3cccs3)C[C@H]1[C@@H]1O[C@@H]12 [tiotropium, tiotropium bromide monohydrate]	No significant increase	No significant increase	No significant increase	significantly increased	
